Some of the results follow. Most values come without repeats; read them as rough.
What was measured:
Experiment in all cases: cell count relative to DMSO control; melanoma cells; higher = more viable cells
Conditions in all cases: library dose: low library concentration; 72 h
MZ2-MEL = system: MZ2-MEL
MeWo = system: MeWo
RPMI7951 = system: RPMI7951
RVH-421 = system: RVH-421
SkMel28 = system: SkMel28
SkMel2 = system: SkMel2
SkMel30 = system: SkMel30
UACC62 = system: UACC62
SkMel5 = system: SkMel5
UACC257 = system: UACC257
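Also: cell number obtained by counting DAPI-stained nuclei in high-throughput microscope images with image analysis software, screen run in 1,536-well plates.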

SMILES | cell count (MZ2-MEL) | cell count (MeWo) | cell count (RPMI7951) | cell count (RVH-421) | cell count (SkMel28) | cell count (SkMel2) | cell count (SkMel30) | cell count (UACC62) | cell count (SkMel5) | cell count (UACC257)
COc1ccc(C2=N[C@@H](c3ccc(Cl)cc3)[C@@H](c3ccc(Cl)cc3)N2C(=O)N2CCNC(=O)C2)c(OC(C)C)c1 [Nutlin-3] + Cn1nnc2c(C(N)=O)ncn2c1=O [temozolomide] (first compound 0.1 µM, partner dose 2 µM) | 106% | 90.3% | 87.3% | 138% | 77% | 108% | 99.4% | 66.8% | – | –
COc1ccc(C2=N[C@@H](c3ccc(Cl)cc3)[C@@H](c3ccc(Cl)cc3)N2C(=O)N2CCNC(=O)C2)c(OC(C)C)c1 [Nutlin-3] + CCCCCCCCCCCC1=C(O)C(=O)C=C(O)C1=O [Embelin] (first compound 0.1 µM, partner dose 1.2 µM) | – | 115% | 117% | 89.7% | 96.5% | 92.5% | 113% | 92.4% | 105% | 123%
CC(C)C[C@H](NC(=O)[C@H](Cc1ccccc1)NC(=O)c1cnccn1)B(O)O [Bortezomib] + CC1(C)NC(=O)N(c2ccc([N+](=O)[O-])c(C(F)(F)F)c2)C1=O [nilutamide] (first compound 0.001 µM, partner dose 1 µM) | – | 93.3% | 78.5% | 56.1% | 116% | 95.5% | 129% | 79.1% | 123% | 85.9%
CC(C)C[C@H](NC(=O)[C@H](Cc1ccccc1)NC(=O)c1cnccn1)B(O)O [Bortezomib] + Nc1ncn([C@H]2C[C@H](O)[C@@H](CO)O2)c(=O)n1 [decitabine] (first compound 0.001 µM, partner dose 0.1 µM) | 47.3% | 78.5% | 36.7% | 49.4% | 85.6% | – | 81% | 49.9% | – | –
COc1ccc(C2=N[C@@H](c3ccc(Cl)cc3)[C@@H](c3ccc(Cl)cc3)N2C(=O)N2CCNC(=O)C2)c(OC(C)C)c1 [Nutlin-3] + CO[C@H]1C[C@@H]2CC[C@@H](C)[C@@](O)(O2)C(=O)C(=O)N2CCCC[C@H]2C(=O)O[C@H]([C@H](C)C[C@@H]2CC[C@@H](OCCO)[C@H](OC)C2)CC(=O)[C@H](C)/C=C(\C)[C@@H](O)[C@@H](OC)C(=O)[C@H](C)C[C@H](C)/C=C/C=C/C=C/1C [everolimus] (first compound 0.1 µM, partner dose 0.02 µM) | 82.6% | 79.2% | 72.1% | 82.3% | 69.1% | – | 57.9% | 70.6% | – | –
CC(C)C[C@H](NC(=O)[C@H](Cc1ccccc1)NC(=O)c1cnccn1)B(O)O [Bortezomib] + Clc1ccc(Nc2nnc(Cc3ccncc3)c3ccccc23)cc1 [vatalanib] (first compound 0.001 µM, partner dose 2 µM) | – | 75.1% | 62.3% | 60% | 100% | 113% | 71.3% | 75.1% | – | –
Cc1cn(-c2cc(NC(=O)c3ccc(C)c(Nc4nccc(-c5cccnc5)n4)c3)cc(C(F)(F)F)c2)cn1 [nilotinib] + CCCS(=O)(=O)Nc1ccc(F)c(C(=O)c2c[nH]c3ncc(Cl)cc23)c1F [PLX4720] (first compound 0.2 µM, partner dose 0.08 µM) | – | 93.3% | 85% | 79.9% | 74.8% | – | 98.5% | 73% | – | –
Cc1cn(-c2cc(NC(=O)c3ccc(C)c(Nc4nccc(-c5cccnc5)n4)c3)cc(C(F)(F)F)c2)cn1 [nilotinib] + CO[C@H]1C[C@@H]2CC[C@@H](C)[C@@](O)(O2)C(=O)C(=O)N2CCCC[C@H]2C(=O)O[C@H]([C@H](C)C[C@@H]2CC[C@@H](OCCO)[C@H](OC)C2)CC(=O)[C@H](C)/C=C(\C)[C@@H](O)[C@@H](OC)C(=O)[C@H](C)C[C@H](C)/C=C/C=C/C=C/1C [everolimus] (first compound 0.2 µM, partner dose 0.02 µM) | 83.8% | 71.9% | 73.2% | 90.5% | 42.1% | – | 66.7% | 68.8% | – | –
Cc1cn(-c2cc(NC(=O)c3ccc(C)c(Nc4nccc(-c5cccnc5)n4)c3)cc(C(F)(F)F)c2)cn1 [nilotinib] + CC(C)C[C@H](NC(=O)[C@H](Cc1ccccc1)NC(=O)c1cnccn1)B(O)O [Bortezomib] (first compound 0.2 µM, partner dose 0.001 µM) | 95.3% | 94% | 99.8% | 75.9% | 109% | 83.3% | 96.9% | 84.9% | – | –
CC(C)C[C@H](NC(=O)[C@H](Cc1ccccc1)NC(=O)c1cnccn1)B(O)O [Bortezomib] + Cn1c(Nc2ccc(C(F)(F)F)cc2)nc2cc(Oc3ccnc(-c4ncc(C(F)(F)F)[nH]4)c3)ccc21 [CHIR265] (first compound 0.001 µM, partner dose 0.08 µM) | 45.1% | 75.4% | 53.1% | 46.2% | 66.9% | 105% | 44.2% | 50.3% | – | –
Cc1cn(-c2cc(NC(=O)c3ccc(C)c(Nc4nccc(-c5cccnc5)n4)c3)cc(C(F)(F)F)c2)cn1 [nilotinib] + CNC(=O)c1cc(Oc2ccc(NC(=O)Nc3ccc(Cl)c(C(F)(F)F)c3)cc2)ccn1 [sorafenib] (first compound 0.2 µM, partner dose 0.4 µM) | 101% | 94.4% | 83.7% | 118% | – | 91.2% | 104% | 99.4% | – | –
Cn1c(=O)n(-c2ccc(C(C)(C)C#N)cc2)c2c3cc(-c4cnc5ccccc5c4)ccc3ncc21 + CNC(=O)c1cc(Oc2ccc(NC(=O)Nc3ccc(Cl)c(C(F)(F)F)c3)cc2)ccn1 [sorafenib] (first compound 0.004 µM, partner dose 0.4 µM) | – | 83.7% | 89.3% | 80.3% | 107% | 83.5% | 88.5% | 104% | – | –
Cc1cc(Nc2cc(N3CCN(C)CC3)nc(/C=C/c3ccccc3)n2)n[nH]1 + Nc1cccc2c1CN(C1CCC(=O)NC1=O)C2=O [lenalidomide] (first compound 0.04 µM, partner dose 1 µM) | 102% | 97.3% | 93.1% | 94.2% | 102% | – | 91% | 87.1% | – | –
Cn1c(=O)n(-c2ccc(C(C)(C)C#N)cc2)c2c3cc(-c4cnc5ccccc5c4)ccc3ncc21 + COc1ccc(-c2ccc3c(N4CCOCC4)nc(N4C[C@@H](C)O[C@@H](C)C4)nc3n2)cc1CO [KU0063794] (first compound 0.004 µM, partner dose 0.02 µM) | – | 88.9% | 94.3% | 98.2% | 60.9% | 76.3% | 88.2% | 91.7% | 105% | 79%
CC(C)C[C@H](NC(=O)[C@H](Cc1ccccc1)NC(=O)c1cnccn1)B(O)O [Bortezomib] + OCc1c[nH]c2ccccc12 [Indole-3-carbinol] (first compound 0.001 µM, partner dose 0.8 µM) | 87.7% | 85.2% | 79.9% | 60.9% | 89.3% | 97.5% | 92.6% | 89.7% | – | –
Cc1cn(-c2cc(NC(=O)c3ccc(C)c(Nc4nccc(-c5cccnc5)n4)c3)cc(C(F)(F)F)c2)cn1 [nilotinib] + Nc1nc(F)nc2c1ncn2[C@@H]1O[C@H](CO)[C@@H](O)[C@@H]1O [fludarabine] (first compound 0.2 µM, partner dose 0.2 µM) | 90.7% | 42.8% | 93.9% | 84.2% | 74.7% | – | 18.5% | 78.5% | – | –
Cc1cc(Nc2cc(N3CCN(C)CC3)nc(/C=C/c3ccccc3)n2)n[nH]1 + Cn1c(Nc2ccc(C(F)(F)F)cc2)nc2cc(Oc3ccnc(-c4ncc(C(F)(F)F)[nH]4)c3)ccc21 [CHIR265] (first compound 0.04 µM, partner dose 0.08 µM) | – | 69.6% | 59.9% | 72.9% | 55.7% | – | 56.1% | 53.4% | – | –
Cc1cn(-c2cc(NC(=O)c3ccc(C)c(Nc4nccc(-c5cccnc5)n4)c3)cc(C(F)(F)F)c2)cn1 [nilotinib] + CN1CCN(c2ccc3nc(-c4c(N)c5c(F)cccc5[nH]c4=O)[nH]c3c2)CC1 [Dovitinib] (first compound 0.2 µM, partner dose 0.1 µM) | 91.3% | 110% | 107% | 106% | 95.3% | 85% | 116% | 112% | – | –
Cc1cc(Nc2cc(N3CCN(C)CC3)nc(/C=C/c3ccccc3)n2)n[nH]1 + COc1cc2ncnc(Nc3ccc(Oc4ccccc4)cc3)c2cc1OC [SrcI1] (first compound 0.04 µM, partner dose 2 µM) | – | 85.4% | 110% | 85.9% | 81.5% | 98.4% | 109% | 96.8% | 93.5% | 105%
Cc1cn(-c2cc(NC(=O)c3ccc(C)c(Nc4nccc(-c5cccnc5)n4)c3)cc(C(F)(F)F)c2)cn1 [nilotinib] + COc1ccc(C2=N[C@@H](c3ccc(Cl)cc3)[C@@H](c3ccc(Cl)cc3)N2C(=O)N2CCNC(=O)C2)c(OC(C)C)c1 [Nutlin-3] (first compound 0.2 µM, partner dose 0.1 µM) | 89.8% | 104% | 85.5% | 91.3% | 87% | 93.9% | 98.7% | 98.4% | – | –

Source: the supplement of paper PMC4604168 (melanoma cell lines)
